The whole screen tested about 140,000 compounds, of which about 240 (0.17%) were called active. Inconclusive means that the source gave no clear call. Such entries were picked first, then a sample of the others. Calls follow the shape of the dose curve; as a rule, active = well fitted inhibition curve with a large enough effect; inconclusive = small, poorly fitted or top-dose-only effect; inactive = no such curve, though single readings can be large or run the other way. Potencies of inconclusive entries are doubtful fits and often do not repeat.
Experiment: Primary qHTS assay for inhibitors of alpha-synuclein gene (SNCA) expression; also: nearly all actives have a fitted effect of over 45% in size
Conditions: HEK-293 SNCA-luciferase knock-in, luminescence, 24 h; series mostly up to 57.2 µM
Potency is read from the fitted curve at half-maximal effect; tags tell the direction and shape of the fitted curve.

Potency, inconclusive:
CN1C[C@H](O)C[C@H]1c1nnc2n1CCN(C(=O)CN1CCCCCC1)CC2 39.8 µM [inhibitor, partial curve, poor fit]
Cc1cc(CN2CCC(c3nnc(CN4CCCC4)n3C3CC3)CC2)on1 1.26 µM [inhibitor, full curve]
COc1ccc(-c2cc(C(=O)NCCc3ccccc3)c3c(-c4ccccc4)[nH]nc3n2)cc1 39.8 µM [inhibitor, single point]
CC(=O)N1CCc2c(sc3c2c(=O)n(-c2ccccc2)c(=O)n3Cc2cccc(C(F)(F)F)c2)C1 39.8 µM [inhibitor, single point]
Cc1ccc(/C=C/c2nc3ccccc3n2S(=O)(=O)c2ccc(Br)cc2)cc1 1.78 µM [inhibitor, full curve, poor fit]
Fc1ccc(Cc2cn3cc(-c4ccc(F)cc4)nc3s2)cc1 10 µM [inhibitor, partial curve, poor fit]
O=C(c1ccc(F)cc1Cl)N1Cc2cnn(Cc3ccc(F)cc3)c2C1 3.16 µM [inhibitor, full curve]
CC1=C(C(=O)OC(C)C)C(c2ccc(C)cc2)N2C(CC(=O)N3CCCCC3)=CSC2=N1 (configuration not stated) 39.8 µM [inhibitor, single point]
CSc1ccc(CCNC(=O)CCc2c(C)nc3c4cccnc4nn3c2C)cc1 6.31 µM [inhibitor, single point]
COc1cc(C2CC(=O)N(CC(=O)Nc3ccccc3F)c3ccccc3S2)cc(OC)c1OC (configuration not stated) 20 µM [inhibitor, single point]
CCC(C(=O)NCCc1ccc(SC)cc1)n1nc(C)c2c(C)n(-c3ccc(C)cc3)nc2c1=O (configuration not stated) 17.8 µM [inhibitor, single point]
COC(=O)c1ccccc1NC(=O)CCc1c(C)nc2cc(-c3ccc(Cl)cc3)nn2c1C 0.891 µM [inhibitor, full curve, poor fit]
O=C(NCCCc1ccccc1)c1cc(-c2cccc(C(F)(F)F)c2)c2cccn2n1 31.6 µM [inhibitor, single point]
O=C(CC[C@H]1NC(=O)c2ccccc2NC1=O)Nc1nc(-c2ccncc2)cs1 39.8 µM [inhibitor, single point]
Cc1ccc(-c2noc([C@@H]3Cc4nc[nH]c4CN3C(=O)NC(C)C)n2)cc1 3.55 µM [inhibitor, full curve, poor fit]
CCOC(=O)c1c(C)[nH]c(C)c1S(=O)(=O)N1CCC(C(=O)Nc2ccc(OC)c(OC)c2)CC1 7.94 µM [inhibitor, partial curve, poor fit]
O=C(c1ccc(F)c(Cl)c1)N1CCC(Cc2nc(-c3cnccn3)no2)CC1 39.8 µM [inhibitor, single point]
COc1ccc2cc3c(N)nn(C(=O)c4ccc(F)cc4Cl)c3nc2c1 8.91 µM [inhibitor, partial curve, poor fit]
COc1ccc(-c2cc(C(=O)NCc3cnn(C)c3)c3c(c2)N(C)CCO3)cc1 11.2 µM [inhibitor, single point]
CC1(COc2ccccc2)COc2ccc(C(=O)NCCc3cnc[nH]3)cc2N1 (configuration not stated) 8.91 µM [inhibitor, single point]
COc1ccc2c(c1)OCC(C(=O)NCc1nnnn1-c1ccccc1)C2 (configuration not stated) 3.16 µM [inhibitor, single point]
O=C(NC[C@H]1O[C@H](Cc2cc(COc3ccccc3)on2)CC[C@@H]1O)Nc1cccc(F)c1 39.8 µM [inhibitor, single point]
COc1ccc(NC(=O)c2ccc3oc(=O)c(S(=O)(=O)c4ccc(F)cc4)cc3c2)c(OC)c1 5.62 µM [inhibitor, partial curve, poor fit]
CCOc1ccccc1N=Nc1c(C)[nH]n(-c2nc(-c3ccccc3)cs2)c1=O 42.9 µM [inhibitor, single point]
CC1=C(C(=O)OC2CCCCCC2)C(c2c(Cl)cccc2Cl)CC(=O)N1 (configuration not stated) 4.47 µM [inhibitor, full curve]
COCCNS(=O)(=O)c1ccc2c(c1)CN(C(=O)Cn1cncn1)CC2 1.58 µM [inhibitor, partial curve, poor fit]
CNC(=O)N1CCC(C2CCN(C(=O)Cc3c(F)cccc3Cl)C2)CC1 (configuration not stated) 39.8 µM [inhibitor, single point]
CCOc1ccc(C(=O)Nc2ccc3ncnc(N4CCCCC4)c3c2)cc1 39.8 µM [inhibitor, single point]
CCn1cnnc1-c1nn(C)c2c1CNCC2 17.8 µM [inhibitor, single point]
COc1ccc(CN2C[C@@H](CO)[C@H](C3CCN(C(C)=O)CC3)C2)cc1C 39.8 µM [inhibitor, single point]
CCNC(=O)c1cccnc1OC1CCN(C(=O)c2cc(C)ccc2C)C1 (configuration not stated) 1.78 µM [inhibitor, full curve, poor fit]
N#Cc1cccc(CN2Cc3[nH]cnc3C[C@H]2c2nc(-c3ccc(OC(F)(F)F)cc3)no2)c1 39.8 µM [inhibitor, single point]
Cc1ccsc1C(=O)N1CCn2c(nnc2[C@@H]2C[C@@H](O)CN2Cc2ccccc2)C1 22.4 µM [inhibitor, partial curve, poor fit]
CC(=O)c1ccc(NC(=O)c2nn(C)c3c2CS(=O)(=O)c2ccccc2-3)cc1 7.08 µM [inhibitor, single point]
O=C(O)CCSc1nnc(-c2ccc(Cl)cc2Cl)o1 1 µM [inhibitor, full curve, poor fit]
CCn1c(=O)c2c(nc(C=Cc3ccc(OC)c(OC)c3)n2C)n(CC)c1=O 0.0429 µM [inhibitor, single point]
COc1cccc(NC(=O)[C@@H]2C[C@@H](c3cccc(C(F)(F)F)c3)N(CC3CCOCC3)C2)c1 22.4 µM [inhibitor, single point]
CCN1c2cc(C(=O)Nc3ccc(F)c(F)c3)ccc2C(=O)N2CCCCCC21 (configuration not stated) 12.6 µM [inhibitor, partial curve, poor fit]
COc1ccccc1NC(=O)N1CCCC1c1nncn1C1CCCC1 (configuration not stated) 15.8 µM [inhibitor, partial curve, poor fit]
Cc1cccc(NC(=O)c2ccc(F)c(S(=O)(=O)N3CCN(c4ccc(F)cc4)CC3)c2)c1 12.6 µM [inhibitor, single point]
CCOc1cc2ncc(C#N)c(Nc3ccc(OCc4ccccn4)c(Cl)c3)c2cc1NC(=O)C=CCN(C)C 1.36 µM [inhibitor, full curve, poor fit]
O=C(NCC1CN(C(=O)Cc2cccc(OC(F)(F)F)c2)CC12CN(c1ccccc1)C2)Nc1ccccc1 (configuration not stated) 31.6 µM [inhibitor, single point]
CC(=O)N(C1CC1)C1CCOC2(CCN(C(=O)NCc3ccc(F)cc3)CC2)C1 (configuration not stated) 8.91 µM [inhibitor, single point]
COc1ccc(CC(=O)NC2CCN(c3ccnc4ccnn34)CC2)cc1 25.1 µM [inhibitor, single point]
Cc1c(NC(=O)c2ccc(-c3ccc(F)cc3)o2)cccc1-c1nc2ncccc2o1 11.2 µM [inhibitor, partial curve, poor fit]

Potency, inactive:
CCCCn1c(=O)c(C(=O)N2CCN(C(=O)NC(C)C)CC2)nc2cccnc21
CCOc1cc2c(cn1)NCCN(Cc1ccccc1OC)C2
COc1ccc(OC)c(S(=O)(=O)N2CCC(c3nc(-c4cccn4C)no3)CC2)c1
c1cncc(CN2CCC(C3CCN(Cc4ccc[nH]4)C3)CC2)c1 (configuration not stated)
Cc1ccc(CN2CCOc3cc([S+](=O)([O-])N(C)C)ccc3C2)c(F)c1
CC1=C[C@@H](CN2CCOCC2)[C@H](C(C)C)C[C@H]1Cc1nnc(-c2ccncc2)o1
CC1CCC2(CC1)NC(=O)N(CC(=O)Nc1ccc(C(C)C)cc1)C2=O (configuration not stated)
O=C(c1ccc(F)cc1)N1CCCC(c2nn(-c3ccccn3)c(=O)[nH]2)C1 (configuration not stated)
O=C(Cc1ccc(F)cc1)N1CCC2(CC1)Cc1ccccc1NC2=O
CCNC(=O)Cc1c[nH]c2ncc(-c3ccccc3C)cc12
Cc1ccc(-c2ccccc2CN2CCN([S+](C)(=O)[O-])CC2)cc1Cl
COCCN1CCN(C[C@@H]2C=C(C)[C@H](Cc3nnc(C)o3)C[C@H]2C(C)C)CC1
CCCc1ccc(S(=O)(=O)N2CCC(c3c[nH]c4c(C)cccc34)CC2)cc1
O=C(C1CCN([S+](=O)([O-])c2cccc(C(F)(F)F)c2)CC1)N1CCC(N2CCOC2=O)CC1
CC(=O)N1CCC2(CC1)OC(=O)N(Cc1ccccc1)C2(C)c1ccccc1 (configuration not stated)
Cc1cc(Cn2cc3c4c(cccc42)[C@H](CC(C)C)N[C@H](C(=O)NC2CCCC2)C3)no1
COCCC(=O)N1CCCCC1c1noc(COc2ccc(C)cc2)n1 (configuration not stated)

— PubChem BioAssay AID1671194 (National Center for Advancing Translational Sciences (NCATS), 2021)
